Among all 46,000 compounds or so, about 60 (0.1%) were called active. Roughly 3% stayed inconclusive and do not appear here. Calls follow the shape of the dose curve; as a rule, active = well fitted inhibition curve with a large enough effect; inconclusive = small, poorly fitted or top-dose-only effect; inactive = no such curve, though single readings can be large or run the other way. The list shows a part of the results.
Assay: Primary qHTS assay for Inhibitors of ovarian cancer metastasis using an organotypic tumor microenvironment (TME) model. Also: nearly all actives have a fitted effect of over 65% in size.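 As to activity change, negative = inhibition: plate controls were DMSO wells for no effect and tomatine positive control wells for full effect.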
Conditions: SKOV3ip1-GFP adhesion/invasion on 3D omental model, fluorescence; series mostly up to 45.8 µM; activity change, negative = inhibition: at the top concentration
Method in brief: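 qHTS, 4-pt dose (0.36-46 umol/L); SKOV3ip1-GFP, 1,200 cells/well, no FBS; primary omental fibroblast/mesothelial co-culture 48 h pre-grown; 2 h RT + 16 h 37 C; PBS wash, 4% PFA; GFP count 488/509 nm.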

Compound | outcome | activity change, negative = inhibition
Cn1ncc2nc(SCC(=O)Nc3ccc(Br)cc3F)n(Cc3ccccc3)c(=O)c21 | inactive | –
Cc1ccn2c(=O)cc(COc3ccc(NC(=O)c4ccccc4F)cc3)nc2c1 | – | inactive: -4.52%
COc1ccccc1N1CCN(C(=O)CN2C(=O)COc3ccc(S(=O)(=O)N4CCC(C)CC4)cc32)CC1 | inactive | –
Cc1ccc(NC(=O)C2CCN(c3cc(C)nc4c(-c5ccc(Cl)cc5)c(C)nn34)CC2)c(C)c1 | – | inactive: 8%
COc1ccc(C(=O)CSc2c(C(C)C)cnc3c2c(=O)n(C)c(=O)n3C)cc1 | – | inactive: 2.29%
COc1cc2[nH]c(=O)n(CCCC(=O)N3CCN(c4cccc(C(F)(F)F)c4)CC3)c(=O)c2cc1OC | – | inactive: -15.7%
CC(=O)c1ccc(NC(=O)CSc2nc(-c3cccc(F)c3)nc3c2c(=O)n(C)c(=O)n3C)cc1 | – | inactive: 0.806%
Cc1ccc2nc(N(Cc3cccnc3)C(=O)CCS(=O)(=O)c3ccccc3)sc2c1 | – | inactive: 38.9%
c1cc(-c2sc(-c3ccncc3)c(-c3ccncc3)c2-c2ccncc2)ccn1 | – | inactive: -3.35%
CCOc1ccc(CCNC(=O)CN2N=C(c3ccccc3)CCC2=O)cc1OCC | inactive | –
Cc1ccc(CN(Cc2ccco2)C(=O)COc2ccc(C(C)C)cc2)cc1 | – | inactive: 2.55%
COc1ccc(CNC(=O)c2ccc3c(c2)nc2n3CCOC2)c(OC)c1 | – | inactive: 6.8%
CCCCN(CC)CCCNC(=O)c1cc2c(=O)[nH]c3ccccc3c2s1 | – | inactive: 9.04%
Cc1cc(C)cc(NC(=O)CN2C(=O)c3ccccc3Sc3ncccc32)c1 | – | inactive: 5.05%
CN1C(C(=O)Nc2ccc(F)cc2F)=CC(c2ccc3c(c2)OCO3)=NS1(=O)=O | – | inactive: 2.66%
COc1ccc(OC)c(CCNC(=O)c2csc3c2CCCCC3)c1 | inactive | –
CCOC(=O)C1CCN(C(=O)c2ccc3c(=O)n4nc(Nc5cc(C)ccc5C)sc4nc3c2)CC1 | – | inactive: 7.4%
CCOC(=O)C(C)NC(=O)c1c(C)oc2ncn(CC(C)C)c(=O)c12 (configuration not stated) | – | inactive: 10.5%
Cc1ccc(CNC(=O)c2cc3c(=O)n(Cc4cccnc4)ccc3nc2C)cc1 | – | inactive: 0.177%
Cc1ccc(-c2cc(C(F)(F)F)c(C#N)c(SCC(=O)Nc3ccccc3)n2)cc1 | – | inactive: -5.83%
CCn1cc(C(=O)N2CCN(c3ccc(C(C)=O)cc3)CC2)c2cc(OC)c(OC)cc2c1=O | inactive | –
COc1cccc(NC(=O)C2CCN(c3nn4cc(-c5ccc(F)cc5)nc4s3)CC2)c1 | – | inactive: 4.61%
Cc1cccc(C)c1OCc1nc2c3c(-c4ccccc4)c(-c4ccccc4)oc3ncn2n1 | – | inactive: 5.16%
Cc1cccc(CNC(=O)CCCn2c(=O)c3cccn3c3ccc(F)cc32)c1 | – | inactive: -7.23%

Compound | outcome | activity change, negative = inhibition
CCNC(=O)c1nn(-c2ccccc2C)nc1CO | – | inactive: -9.49%
CC(=O)C1=C(c2ccc(C)c(C)c2)N(C(C)=O)n2c(nnc2-c2ccc(Cl)cc2)S1 | – | inactive: 4.86%
Cc1csc2nc(COc3ccccc3NC(=O)c3ccc(C(C)(C)C)cc3)cc(=O)n12 | – | inactive: 54.5%
Cc1cccc2c1-c1sc(C(=O)N(C)c3cccc(C(F)(F)F)c3)cc1CO2 | – | inactive: -6.45%
COC(=O)N1CCN(Cc2cccc(NC(=O)Nc3ccc(C)nc3)c2F)CC1 | – | inactive: 5.28%
Cc1ccccc1OC(=O)CSc1nnc(-c2ccc(F)cc2)o1 | inactive | –
Cc1c(NC(=O)c2nc3ccccc3nc2N2CCCCC2)cccc1[N+](=O)[O-] | – | inactive: -0.922%
Cc1ccc(CN2CCN(CC(=O)Nc3ccc(C)c(C)c3)S2(=O)=O)cc1 | – | inactive: 2.28%
Cc1ccccc1-n1nc(CO)c(C(=O)NCc2cccs2)n1 | – | inactive: -9.74%
N#Cc1cccc(NC(=O)C2CCN(S(=O)(=O)c3ccc4[nH]c(=O)ccc4c3)CC2)c1 | – | inactive: 0.597%
O=C(Cn1c(=O)n(-c2ccccc2Cl)c(=O)c2sc3ccccc3c21)NC1CCCCC1 | inactive | –
CN(C)CCCN1c2ccccc2CCc2ccc(Cl)cc21 | – | inactive: -8.86%
CCOC(=O)c1cc(C)n(CC2CCC(C(=O)Nc3ccc(C)c(F)c3)CC2)c1C (configuration not stated) | – | inactive: -9.73%
COc1ccc(N2CC(NC(=O)CCCc3ccccc3)CC2=O)cc1 (configuration not stated) | – | inactive: 2.23%
CCOc1cc(CNC(=O)NC2COc3ccc(OC)cc3C2)cc(OCC)c1OCC (configuration not stated) | – | inactive: -5.91%
COC(=O)c1ccccc1NC(=O)Nc1nnc(N2CCC(C)CC2)s1 | – | inactive: 12.7%
Cc1ccc(C(=O)Nc2ccc(-c3nc4ccccc4s3)cc2C)cc1C | – | inactive: -4.51%
CCN(CC)C(=O)CSc1nc2cc3c(cc2c(=O)n1CCCCCC(=O)NCc1ccc(OC)cc1)OCO3 | – | inactive: -3.32%
CCN(CCCNC(=O)c1ccc(Sc2ccc(F)cc2)c(NC(C)=O)c1)c1ccccc1 | – | inactive: -6.73%
O=C(NCC(c1ccc2c(c1)OCO2)N1CCN(c2ccccc2)CC1)C(=O)Nc1cccc(F)c1 (configuration not stated) | – | inactive: 2.76%
Cc1ccc(CSC2=Nc3ccccc3C3=NC(CCC(=O)NCc4cccs4)C(=O)N23)cc1 (configuration not stated) | – | inactive: -3.4%
Cc1c(Cl)cccc1NC(=O)C1CCCN(c2nnc(-n3c(C)ccc3C)s2)C1 (configuration not stated) | inactive | –
O=C(NCc1ccc2c(c1)OCO2)c1ccc2c(c1)N(Cc1cccc(Cl)c1)C(=O)c1ccccc1S2=O (configuration not stated) | inactive | –

Reference: PubChem BioAssay AID1963576 (National Center for Advancing Translational Sciences (NCATS), 2024)
